Source: US12290509B2, “Treatment of hepatitis delta virus infection” (priority 2014, dated 2025)
Where “and” joins values, the source holds several entries; their conditions need not be identical. Equal entries are not always repeated.

Columns and labels:
[1] = tested on: hepatitis delta virus (HDV); details: human, in vivo
hepatitis B virus (HBV) = experiment: HBV DNA viral load and HBsAg in patients infected with HBV and HDV; details: PEG-IFN-λ 120 or 180 μg per week s.c., 48 weeks, prophetic protocol

With NC(=O)N1CCC(CC(=O)N2CCC([C@H]3c4ncc(Br)cc4CCc4cc(Cl)cc(Br)c43)CC2)CC1 [lonafarnib] the “HDV RNA level increase after discontinuation of lonafarnib (viral rebound)” value [1] was 1.7 log HDV RNA copies/mL and 1.4 log HDV RNA copies/mL, the “change in viral loads at 56 and 84 days versus levels at 28 days” value [1] was “plateaued or increased” and the “mean change in HDV RNA levels from baseline to nadir” value [1] was −0.74 log HDV RNA copies/mL. The “response to therapy (>=0.5 log HDV RNA copies/mL decline baseline to nadir)” value [1] was “responsive to therapy” and the “time from flare to ALT normalization and HDV RNA negativity” value [1] was 12-24 weeks.

B1: interferon lambda monotherapy: pegylated interferon lambda-1a, subcutaneous, prophetic Phase 2 protocol (protein, UniProt Q8IU54 20-200, looked up)
Interferon lambda-1: GPVPTSKPTTTGKGCHIGRFKSLSPQELASFKKARDALEESLKLKNWSCSSPVFPGNWDLRLLQVRERPVALEAELALTLKVLEAAAGPALEDVLDQPLHTLHHILSQLQACIQPQPTAGPRPRGRLHHWLHRLQEAPKKESAGCLEASVTFNLFRLLTRDLKYVADGNLCLRTSTHPEST
modifications: PEG
notes: pegylated interferon lambda-1a, subcutaneous, prophetic Phase 2 protocol
For B1, the “HDV viral load at end-of-treatment compared to baseline” value ([1]; sc) was “reduction in HDV viral load”, the “HBV viral load at end-of-treatment compared to baseline” value (hepatitis B virus (HBV)) was “reduction in HBV viral load” and the “level of HBsAg at end-of-treatment compared to baseline” value (hepatitis B virus (HBV)) was “reduction in the level of HBsAg”.
